According to the supplement of paper PMC8728848:
The other results are listed elsewhere or left out.

Key:
Test in all cases: glycan array binding signal (z-score within array); higher = stronger binding
Conditions in all cases: glycan notation: IUPAC condensed, linker removed
Fuc(a1-2)Gal = molecular target: Fuc(a1-2)Gal
Summary of the method: (§1)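 The binding signal is a Z-score computed within each array and averaged over linkers. Arrays of the same protein sequence at different concentrations or buffers were also averaged together. Data originate from 3228 arrays in the Consortium for Functional Glycomics database, kept only where the protein sequence was available.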

Fuc(a1-2)Gal(b1-3)GalNAc = molecular target: Fuc(a1-2)Gal(b1-3)GalNAc
Summary of the method: as §1

[1] = molecular target: Fuc(a1-2)Gal(b1-3)GalNAc(a1-3)[Fuc(a1-2)]Gal(b1-4)Glc
Summary of the method: as §1

[2] = molecular target: Fuc(a1-2)Gal(b1-3)GalNAc(a1-3)[Fuc(a1-2)]Gal(b1-4)GlcNAc
Summary of the method: as §1

[3] = molecular target: Fuc(a1-2)Gal(b1-3)GalNAc(b1-3)Gal
Summary of the method: as §1

[4] = molecular target: Fuc(a1-2)Gal(b1-3)GalNAc(b1-3)Gal(a1-4)Gal(b1-4)Glc
Summary of the method: as §1

[5] = molecular target: Fuc(a1-2)Gal(b1-3)GalNAc(b1-4)[Neu5Ac(a2-3)]Gal(b1-4)Glc
Summary of the method: as §1

Fuc(a1-2)Gal(b1-3)GlcNAc = molecular target: Fuc(a1-2)Gal(b1-3)GlcNAc
Summary of the method: as §1

[6] = molecular target: Fuc(a1-2)Gal(b1-3)GlcNAc(b1-2)Man(a1-3)[Fuc(a1-2)Gal(b1-3)GlcNAc(b1-2)Man(a1-6)]Man(b1-4)GlcNAc(b1-4)GlcNAc
Summary of the method: as §1

[7] = molecular target: Fuc(a1-2)Gal(b1-3)GlcNAc(b1-2)Man(a1-3)[Fuc(a1-2)Gal(b1-3)GlcNAc(b1-2)Man(a1-6)]Man(b1-4)GlcNAc(b1-4)[Fuc(a1-6)]GlcNAc
Summary of the method: as §1

[8] = molecular target: Fuc(a1-2)Gal(b1-3)GlcNAc(b1-3)Gal(b1-4)Glc
Summary of the method: as §1

[9] = molecular target: Fuc(a1-2)Gal(b1-3)GlcNAc(b1-3)GalNAc
Summary of the method: as §1

[10] = molecular target: Fuc(a1-2)Gal(b1-3)GlcNAc(b1-3)[Fuc(a1-2)Gal(b1-3)GlcNAc(b1-6)]GalNAc
Summary of the method: as §1

[11] = molecular target: Fuc(a1-2)Gal(b1-3)GlcNAc(b1-3)[Gal(b1-4)GlcNAc(b1-6)]Gal(b1-4)Glc
Summary of the method: as §1

[12] = molecular target: Fuc(a1-2)Gal(b1-3)GlcNAc(b1-3)[Neu5Ac(a2-6)Gal(b1-4)GlcNAc(b1-6)]Gal(b1-4)Glc
Summary of the method: as §1

[13] = molecular target: Fuc(a1-2)Gal(b1-3)GlcNAc6S
Summary of the method: as §1

[14] = molecular target: Fuc(a1-2)Gal(b1-3)[Fuc(a1-4)]GlcNAc
Summary of the method: as §1

[15] = molecular target: Fuc(a1-2)Gal(b1-3)[Fuc(a1-4)]GlcNAc(b1-2)Man(a1-3)[Fuc(a1-2)Gal(b1-3)[Fuc(a1-4)]GlcNAc(b1-2)Man(a1-3)]Man(b1-4)GlcNAc(b1-4)GlcNAc
Summary of the method: as §1

[16] = molecular target: Fuc(a1-2)Gal(b1-3)[Fuc(a1-4)]GlcNAc(b1-2)Man(a1-3)[Fuc(a1-2)Gal(b1-3)[Fuc(a1-4)]GlcNAc(b1-2)Man(a1-6)]Man(b1-4)GlcNAc(b1-4)[Fuc(a1-6)]GlcNAc(b1-4)[Fuc(a1-6)]GlcNAc
Summary of the method: as §1

[17] = molecular target: Fuc(a1-2)Gal(b1-3)[Fuc(a1-4)]GlcNAc(b1-3)[Fuc(a1-3)[Gal(b1-4)]GlcNAc(b1-6)]Gal(b1-4)Glc
Summary of the method: as §1

[18] = molecular target: Fuc(a1-2)Gal(b1-3)[Fuc(a1-4)]GlcNAc(b1-3)[Gal(b1-4)GlcNAc(b1-6)]Gal(b1-4)Glc
Summary of the method: as §1

[19] = molecular target: Fuc(a1-2)Gal(b1-4)Fuc(a1-3)]GlcNAc(b1-2)Man(a1-3)[Fuc(a1-2)Gal(b1-4)[Fuc(a1-3)]GlcNAc(b1-2)Man(a1-6)]Man(b1-4)GlcNAc(b1-4)GlcNAc
Summary of the method: as §1

Fuc(a1-2)Gal(b1-4)Glc = molecular target: Fuc(a1-2)Gal(b1-4)Glc
Summary of the method: as §1

Fuc(a1-2)Gal(b1-4)Glc6S = molecular target: Fuc(a1-2)Gal(b1-4)Glc6S
Summary of the method: as §1

Fuc(a1-2)Gal(b1-4)GlcNAc = molecular target: Fuc(a1-2)Gal(b1-4)GlcNAc
Summary of the method: as §1

[20] = molecular target: Fuc(a1-2)Gal(b1-4)GlcNAc(b1-2)Man
Summary of the method: as §1

[21] = molecular target: Fuc(a1-2)Gal(b1-4)GlcNAc(b1-2)Man(a1-3)[Fuc(a1-2)Gal(b1-4)GlcNAc(b1-2)Man(a1-6)]Man(b1-4)GlcNAc(b1-4)GlcNAc
Summary of the method: as §1

[22] = molecular target: Fuc(a1-2)Gal(b1-4)GlcNAc(b1-2)Man(a1-3)[Fuc(a1-2)Gal(b1-4)GlcNAc(b1-2)Man(a1-6)]Man(b1-4)GlcNAc(b1-4)[Fuc(a1-6)]GlcNAc
Summary of the method: as §1

[23] = molecular target: Fuc(a1-2)Gal(b1-4)GlcNAc(b1-2)[Fuc(a1-2)Gal(b1-4)GlcNAc(b1-4)]Man(a1-3)[Fuc(a1-2)Gal(b1-4)GlcNAc(b1-2)Man(a1-6)]Man(b1-4)GlcNAc(b1-4)GlcNAc
Summary of the method: as §1

[24] = molecular target: Fuc(a1-2)Gal(b1-4)GlcNAc(b1-3)Gal(b1-4)GlcNAc
Summary of the method: as §1

B1: DC-Sign (Homo sapiens), Q9NNX6 (protein)
chain: MSDSKEPRLQQLGLLEEEQLRGLGFRQTRGYKSLAGCLGHGPLVLQLLSFTLLAGLLVQVSKVPSSISQEQSRQDAIYQNLTQLKAAVGELSEKSKLQEIYQELTQLKAAVGELPEKSKLQEIYQELTRLKAAVGELPEKSKLQEIYQELTWLKAAVGELPEKSKMQEIYQELTRLKAAVGELPEKSKQQEIYQELTRLKAAVGELPEKSKQQEIYQELTRLKAAVGELPEKSKQQEIYQELTQLKAAVERLCHPCPWEWTFFQGNCYFMSNSQRNWHDSITACKEVGAQLVVIKSAEEQNFLQLQSSRSNRFTWMGLSDLNQEGTWQWVDGSPLLPSFKQYWNRGEPNNVGEEDCAEFSGNGWNDDKCNLAKFWICKKSAASCSRDEEQFLSPAPATPNPPPA
Fuc(a1-2)Gal
  glycan array binding signal (z-score): -0.114
Fuc(a1-2)Gal(b1-3)GalNAc
  glycan array binding signal (z-score): -0.18
[1]
  glycan array binding signal (z-score): -0.156
[2]
  glycan array binding signal (z-score): -0.14
[3]
  glycan array binding signal (z-score): -0.179
[4]
  glycan array binding signal (z-score): -0.182
[5]
  glycan array binding signal (z-score): -0.149
Fuc(a1-2)Gal(b1-3)GlcNAc
  glycan array binding signal (z-score): -0.18
[6]
  glycan array binding signal (z-score): -0.081
[7]
  glycan array binding signal (z-score): -0.105
[8]
  glycan array binding signal (z-score): -0.169
[9]
  glycan array binding signal (z-score): -0.169
[10]
  glycan array binding signal (z-score): -0.167
[11]
  glycan array binding signal (z-score): -0.175
[12]
  glycan array binding signal (z-score): -0.041
[13]
  glycan array binding signal (z-score): -0.129
[14]
  glycan array binding signal (z-score): -0.096
[15]
  glycan array binding signal (z-score): -0.134
[16]
  glycan array binding signal (z-score): -0.156
[17]
  glycan array binding signal (z-score): -0.025
[18]
  glycan array binding signal (z-score): -0.093
[19]
  glycan array binding signal (z-score): -0.142
Fuc(a1-2)Gal(b1-4)Glc
  glycan array binding signal (z-score): -0.13
Fuc(a1-2)Gal(b1-4)Glc6S
  glycan array binding signal (z-score): -0.19
Fuc(a1-2)Gal(b1-4)GlcNAc
  glycan array binding signal (z-score): -0.129
[20]
  glycan array binding signal (z-score): -0.164
[21]
  glycan array binding signal (z-score): -0.167
[22]
  glycan array binding signal (z-score): -0.182
[23]
  glycan array binding signal (z-score): -0.174
[24]
  glycan array binding signal (z-score): -0.175
